Results taken from a collection of fitness landscapes (doi:10.1016/j.celrep.2020.107928).
The full ranking holds about 81,000 sequences; the median of “one-hybrid fitness for binding NBS DNA” is about -0.1, and the highest 2% start at about 0.36. Some of the results follow.

B1: Caulobacter ParB omega fusion; a variant is named by its letters at X, in order, B8GW30 (parent)
chain: MESVVVGEPGMSEGRRGLGRGLSALLGEVDAAPAQAPGEQLGGSREAPIEILQRNPDQPRRTFREEDLEDLSNSIREKGVLQPILVRPSPDTAGEYQIVAGERAWRAAQRAGLKTVPIMVRELDDLAVLEIGIIENVQRADLNVLEEALSYKVLMEKFERTQENIAQTIGKSXSHVANXMRLLXLPDEVQSYLVSGELTAXHARAIAAAADPVALAKQIIEGGLSVRETEALARKAPNLSAGKSKGGRPPRVKDTDTQALESDLSSVLGLDVSIDHRGSTGTLTITYATLEQLDDLCNRLTRGI

Variants of: B1
Assay: one-hybrid fitness for binding NBS DNA (the Noc-binding site; scaled: cognate 1, non-cognate 0); higher = stronger binding
Settings: with NBS DNA site
In short: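 Selection: bacterial one-hybrid in E. coli USO, HIS3 reporter with the site 19 bp from the promoter, 48 hours at 37°C on M9-minus-histidine plus 0.1 mM IPTG and 5 mM 3-AT. Libraries were Caulobacter ParB with four randomised specificity codons, sequenced on Illumina before and after selection. Fitness is the rescaled log change in variant-to-wild-type read ratio, anchored to the cognate and non-cognate sites.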

Row | Variant | one-hybrid fitness for binding NBS DNA
1 | YKER | ≤ 0.2
2 | LSQF | ≤ 0.2
3 | QINA | 0.21
4 | QRTV | 0.412
5 | HTYT | ≤ 0.2
6 | QEDW | ≤ 0.2
7 | AVAC | ≤ 0.2
8 | DLAM | ≤ 0.2
9 | LFNS | ≤ 0.2
10 | YLAC | ≤ 0.2
11 | ATVL | ≤ 0.2
12 | LWAS | ≤ 0.2
13 | QHGT | 0.385
14 | CRRG | ≤ 0.2
15 | NDEG | ≤ 0.2
16 | RLFG | ≤ 0.2
17 | YKWR | ≤ 0.2
18 | RTKW | ≤ 0.2
19 | ILPT | ≤ 0.2
20 | CSTE | ≤ 0.2
21 | SSLD | ≤ 0.2
22 | KASL | ≤ 0.2
23 | LNPP | ≤ 0.2
24 | WYLT | ≤ 0.2
25 | VTAI | ≤ 0.2
26 | QRWH | 0.301

Row | Variant | one-hybrid fitness for binding NBS DNA
27 | AYVY | ≤ 0.2
28 | YNHS | ≤ 0.2
29 | SYRP | ≤ 0.2
30 | YRRL | ≤ 0.2
31 | SCRE | ≤ 0.2
32 | AWTT | ≤ 0.2
33 | DCNG | ≤ 0.2
34 | NHSA | ≤ 0.2
35 | STVW | ≤ 0.2
36 | FNIS | ≤ 0.2
37 | HLYG | ≤ 0.2
38 | SSRK | ≤ 0.2
39 | TLEC | ≤ 0.2
40 | LESY | ≤ 0.2
41 | WVAT | ≤ 0.2
42 | HPWP | ≤ 0.2
43 | ENRT | ≤ 0.2
44 | LLYR | ≤ 0.2
45 | VHHK | ≤ 0.2
46 | LSGA | ≤ 0.2
47 | YADA | ≤ 0.2
48 | MYES | ≤ 0.2
49 | AMHT | ≤ 0.2
50 | IIVH | ≤ 0.2
51 | NMQR | ≤ 0.2
52 | GSCR | ≤ 0.2

Row | Variant | one-hybrid fitness for binding NBS DNA
53 | NGPV | ≤ 0.2
54 | PMDC | ≤ 0.2
55 | KYTR | ≤ 0.2
56 | KCPR | ≤ 0.2
57 | VWSD | ≤ 0.2
58 | TIPG | ≤ 0.2
59 | NYEG | ≤ 0.2
60 | CAVT | ≤ 0.2
61 | VLPT | ≤ 0.2
62 | SCTT | ≤ 0.2
63 | AVPQ | ≤ 0.2
64 | LTLD | ≤ 0.2
65 | HWWS | ≤ 0.2
66 | WAHY | ≤ 0.2
67 | DPLR | ≤ 0.2
68 | RSYL | ≤ 0.2
69 | IRNS | ≤ 0.2
70 | AASY | ≤ 0.2
71 | VRNV | ≤ 0.2
72 | MWCS | ≤ 0.2
73 | LDRG | ≤ 0.2
74 | IQAS | ≤ 0.2
75 | LTDE | ≤ 0.2
76 | LAAQ | ≤ 0.2
